B1: Ab1103: LS2A indinavir binding domain, FIGS. 5A-5E (antibody)
heavy: EVQLVESGGGLVQPGGSLRLSCAASGFTFSNYWMNWVRQAPGKGLEWVAQIRVKSENFATHYADSVKGRFTISRDDSKSTVYLQMNSLRAEDTAVYYCTLYDGFSWGQGTLVTVSSASTKGPSVFPLAPSSKSTSGGTAALGCLVKDYFPEPVTVSWNSGALTSGVHTFPAVLQSSGLYSLSSVVTVPSSSLGTQTYICNVNHKPSNTKVDKKV[human IgG1 Fc with changes left out]
scFv: QVQLVQSGAEVKKPGASVKVSCKASGYTFTSYWMHWVRQHPGQGLEWMGMIHPASGGTNYAQKFQGRVTMTRDTSTSTVYMELSSLRSEDTAVYYCAMGDYVSRDYWGQGTLVTVSSGGGGSGGGGSGGGGSEIVLTQSPGTLSLSPGERATLSCRASSSVSSSYLHWYQQKPGQAPRLLIYSTSSRATGIPDRFSGSGSGTDFTLTISRLEPEDFAVYYCQQYSGYQFTFGQGTKLEIKGGGGS[human IgG1 Fc with changes left out]
modifications: light chain entry not cited; REGION 1..445: note = Ab1103 HC Knob; REGION 1..471: note = Ab1103 HC Hole scFv-Fc
B2: Ab1105: LS2A indinavir binding domain, FIGS. 5A-5E (antibody)
heavy: EVQLVESGGGLVQPGGSLRLSCAASGFTFSNYWMNWVRQAPGKGLEWVAQIRVKSENFATHYADSVKGRFTISRDDSKSTVYLQMNSLRAEDTAVYYCTLYDGFSWGQGTLVTVSSASTKGPSVFPLAPSSKSTSGGTAALGCLVKDYFPEPVTVSWNSGALTSGVHTFPAVLQSSGLYSLSSVVTVPSSSLGTQTYICNVNHKPSNTKVDKKV[human IgG1 Fc with changes left out]
scFv: QVQLVQSGAEVKKPGASVKVSCKASGYTFTSYWMHWVRQHPGQGLEWMGMIHPQSGGTNYAQKFQGRVTMTRDTSTSTVYMELSSLRSEDTAVYYCAMGDYVSRDYWGQGTLVTVSSGGGGSGGGGSGGGGSEIVLTQSPGTLSLSPGERATLSCRASSSVSSSYLHWYQQKPGQAPRLLIYSTSSRATGIPDRFSGSGSGTDFTLTISRLEPEDFAVYYCQQYSGYQFTFGQGTKLEIKGGGGS[human IgG1 Fc with changes left out]
modifications: light chain entry not cited; REGION 1..445: note = Ab1105 HC Knob; REGION 1..471: note = Ab1105 HC Hole scFv-Fc
B3: Ab1107: LS2A indinavir binding domain, FIGS. 5A-5E (antibody)
heavy: EVQLVESGGGLVQPGGSLRLSCAASGFTFSNYWMNWVRQAPGKGLEWVAQIRVKSENFATHYADSVKGRFTISRDDSKSTVYLQMNSLRAEDTAVYYCTLYDGFSWGQGTLVTVSSASTKGPSVFPLAPSSKSTSGGTAALGCLVKDYFPEPVTVSWNSGALTSGVHTFPAVLQSSGLYSLSSVVTVPSSSLGTQTYICNVNHKPSNTKVDKKV[human IgG1 Fc with changes left out]
scFv: QVQLVQSGAEVKKPGASVKVSCKASGYTFTSYWMHWVRQHPGQGLEWMGMAHPNSGGTNYAQKFQGRVTMTRDTSTSTVYMELSSLRSEDTAVYYCAMGDYVSRDYWGQGTLVTVSSGGGGSGGGGSGGGGSEIVLTQSPGTLSLSPGERATLSCRASSSVSSSYLHWYQQKPGQAPRLLIYSTSSRATGIPDRFSGSGSGTDFTLTISRLEPEDFAVYYCQQYSGYQFTFGQGTKLEIKGGGGS[human IgG1 Fc with changes left out]
modifications: light chain entry not cited; REGION 1..445: note = Ab1107 HC Knob; REGION 1..471: note = Ab1107 HC Hole scFv-Fc
B4: Ab1109: LS2A indinavir binding domain, FIGS. 5A-5E (antibody)
heavy: EVQLVESGGGLVQPGGSLRLSCAASGFTFSNYWMNWVRQAPGKGLEWVAQIRVKSENFATHYADSVKGRFTISRDDSKSTVYLQMNSLRAEDTAVYYCTLYDGFSWGQGTLVTVSSASTKGPSVFPLAPSSKSTSGGTAALGCLVKDYFPEPVTVSWNSGALTSGVHTFPAVLQSSGLYSLSSVVTVPSSSLGTQTYICNVNHKPSNTKVDKKV[human IgG1 Fc with changes left out]
scFv: QVQLVQSGAEVKKPGASVKVSCKASGYTFTSYWMHWVRQHPGQGLEWMGMIHPNSGSTNYAQKFQGRVTMTRDTSTSTVYMELSSLRSEDTAVYYCAMGDYVSRDYWGQGTLVTVSSGGGGSGGGGSGGGGSEIVLTQSPGTLSLSPGERATLSCRASSSVSSSYLHWYQQKPGQAPRLLIYSTSSRATGIPDRFSGSGSGTDFTLTISRLEPEDFAVYYCQQYSGYQFTFGQGTKLEIKGGGGS[human IgG1 Fc with changes left out]
modifications: light chain entry not cited; REGION 1..445: note = Ab1109 HC Knob; REGION 1..471: note = Ab1109 HC Hole scFv-Fc
B5: Ab1110: LS2A indinavir binding domain, FIGS. 5A-5E (antibody)
heavy: EVQLVESGGGLVQPGGSLRLSCAASGFTFSNYWMNWVRQAPGKGLEWVAQIRVKSENFATHYADSVKGRFTISRDDSKSTVYLQMNSLRAEDTAVYYCTLYDGFSWGQGTLVTVSSASTKGPSVFPLAPSSKSTSGGTAALGCLVKDYFPEPVTVSWNSGALTSGVHTFPAVLQSSGLYSLSSVVTVPSSSLGTQTYICNVNHKPSNTKVDKKV[human IgG1 Fc with changes left out]
scFv: QVQLVQSGAEVKKPGASVKVSCKASGYTFTSYWMHWVRQHPGQGLEWMGMIHPNSGGANYAQKFQGRVTMTRDTSTSTVYMELSSLRSEDTAVYYCAMGDYVSRDYWGQGTLVTVSSGGGGSGGGGSGGGGSEIVLTQSPGTLSLSPGERATLSCRASSSVSSSYLHWYQQKPGQAPRLLIYSTSSRATGIPDRFSGSGSGTDFTLTISRLEPEDFAVYYCQQYSGYQFTFGQGTKLEIKGGGGS[human IgG1 Fc with changes left out]
modifications: light chain entry not cited; REGION 1..445: note = Ab1110 HC Knob; REGION 1..471: note = Ab1110 HC Hole scFv-Fc
B6: Ab1124: LS2A indinavir binding domain, FIGS. 5A-5E (antibody)
heavy: EVQLVESGGGLVQPGGSLRLSCAASGFTFSNYWMNWVRQAPGKGLEWVAQIRVKSENFATHYADSVKGRFTISRDDSKSTVYLQMNSLRAEDTAVYYCTLYDGFSWGQGTLVTVSSASTKGPSVFPLAPSSKSTSGGTAALGCLVKDYFPEPVTVSWNSGALTSGVHTFPAVLQSSGLYSLSSVVTVPSSSLGTQTYICNVNHKPSNTKVDKKV[human IgG1 Fc with changes left out]
scFv: QVQLVQSGAEVKKPGASVKVSCKASGYTFTSYWMHWVRQHPGQGLEWMGMIHPNSGGTNYAQKFQGRVTMTRDTSTSTVYMELSSLRSEDTAVYYCAMGDYVSRDYWGQGTLVTVSSGGGGSGGGGSGGGGSEIVLTQSPGTLSLSPGERATLSCRASSSVSSSYLHWYQQKPGQAPRLLIYSTSSRATGIPDRFSGSGSGTDFTLTISRLEPEDFAVYYCQQASGYQFTFGQGTKLEIKGGGGS[human IgG1 Fc with changes left out]
modifications: light chain entry not cited; REGION 1..445: note = Ab1124 HC Knob; REGION 1..471: note = Ab1124 HC Hole scFv-Fc
B7: Ab1096: LS2A indinavir binding domain, FIGS. 5A-5E (antibody)
heavy: QVQLVQSGAEVKKPGASVKVSCKASGYTFTSYFMHWVRQHPGQGLEWMGMIHPNSGGTNYAQKFQGRVTMTRDTSTSTVYMELSSLRSEDTAVYYCAMGDYVSRDYWGQGTLVTVSSGGGGSGGGGSGGGGSEIVLTQSPGTLSLSPGERATLSCRASSSVSSSYLHWYQQKPGQAPRLLIYSTSSRATGIPDRFSGSGSGTDFTLTISRLEPEDFAVYYCQQYSGYQFTFGQGTKLEIKGGGGS[human IgG1 Fc with changes left out]
light: DIQMTQSPSSLSASVGDRVTITCSASSSVSSGNFHWYQQKPGKAPKLLIYRTSNLASGVPSRFSGSGSGTDYTLTISSLQPEDFATYYCQQWSGYPYTFGQGTKVEIKRTVAAPSVFIFPPSDEQLKSGTASVVCLLNNFYPREAKVQWKVDNALQSGNSQESVTEQDSKDSTYSLSSTLTLSKADYEKHKVYACEVTHQGLSSPVTKSFNRGEC
modifications: knob heavy chain missing; REGION 1..471: note = Ab1096 HC Hole scFv-Fc; REGION 1..215: note = Ab1096 LC Knob

Tests used:
[1] = BLI binding of LS2A variants to biotin-IDV; conditions: LS2A R4 variants (Table 21)
Protocol: In R1 of engineering, point mutations were made to remove an oxidation site, deamidation sites, or a hydrophobic residue. In addition, several murine back mutations were tested to improve humanization. Binding kinetics were measured to biotin-IDV and LS2B Ab0637.
Bio-layer interferometry (BLI) data were measured using an Octet RED384 (ForteBio) instrument. Antigens of interest were immobilized on an AHC biosensor and loaded until a 0.4-0.6-nm signal was achieved. Purified antibodies were used as the analyte premixed with 10 μM Indinavir or 0.05% DMSO vehicle. PBSTB (PBS, pH 7.4, 0.05% Tween-20, 0.2% BSA) was used for all buffers for BLI. Data were analyzed using ForteBio Octet analysis software and kinetic parameters were determined using a 1:1 monovalent binding model.

[2] = Differential scanning fluorimetry (DSF) melting temperature; format: physicochemical; conditions: LS2A R4 variants (Table 21)
Protocol: DSF was performed on a LC480 Lightcycler Instrument II (Roche). Purified recombinant protein was diluted to 5 μM in DSF buffer (PBS, pH 7.4, Sypro Orange 5×) with small molecule (10 μM VTX) or vehicle (0.05% DMSO) and then heated with a temperature gradient (0.01° C./s) from 25 to 95° C. Data were continuously acquired at ˜465 nm (excitation) and ˜580 nm (emission). Data was analyzed to generate first derivative curves in which the curve maximum was reported as the melting temperature of the protein.

| Molecule | Kd [1] | TM (° C.) [2] | biotin-IDV KD (nM) [1] |
| --- | --- | --- | --- |
| B1 | 0.011 µM | – | – |
| B2 | 0.011 µM | 59.6 °C | – |
| B3 | – | – | weak |
| B4 | 0.0063 µM | – | – |
| B5 | 0.0049 µM | – | – |
| B6 | 0.022 µM | – | – |
| B7 | 0.015 µM | 54.8 °C | – |
